Data on two molecules can be found in patent US20250179210A1, “ANTI-CEACAM5 ANTIBODIES AND CONJUGATES AND USES THEREOF” (Merck Patent GmbH, priority 2022, published 2025).

Data set [1] relates to mfCEACAM5-expressing CHO cell line. Kind of data set: Cellular binding (titration, fluorescence MFI). The arrangement: species or system Macaca fascicularis. The following applies: exemplary data. On the procedure:
The antibody's ability to bind its target protein on cells was determined by titrating the antibody on cells that express the target (e.g. human CEACAM5) and measuring the fluorescence MFI of the cells. Model cells for antibody binding comparison were the MKN45 cell line expressing human CEACAM5 as well as a CHO cell line expressing mfCEACAM5. Titration was done with 10-point ×4 dilution, curve starting concentration 2000 nM in assay buffer (PBS×1 containing 1% BSA).

Data set [2] deals with T1, CEACAM5 in cancer cell line lysates (Homo sapiens, UniProt P06731).
T1 construct: endogenous in cells; host or cells: CEACAM5-positive and -negative cancer cell lines (RIPA lysates)
T1 sequence (P06731 35-685): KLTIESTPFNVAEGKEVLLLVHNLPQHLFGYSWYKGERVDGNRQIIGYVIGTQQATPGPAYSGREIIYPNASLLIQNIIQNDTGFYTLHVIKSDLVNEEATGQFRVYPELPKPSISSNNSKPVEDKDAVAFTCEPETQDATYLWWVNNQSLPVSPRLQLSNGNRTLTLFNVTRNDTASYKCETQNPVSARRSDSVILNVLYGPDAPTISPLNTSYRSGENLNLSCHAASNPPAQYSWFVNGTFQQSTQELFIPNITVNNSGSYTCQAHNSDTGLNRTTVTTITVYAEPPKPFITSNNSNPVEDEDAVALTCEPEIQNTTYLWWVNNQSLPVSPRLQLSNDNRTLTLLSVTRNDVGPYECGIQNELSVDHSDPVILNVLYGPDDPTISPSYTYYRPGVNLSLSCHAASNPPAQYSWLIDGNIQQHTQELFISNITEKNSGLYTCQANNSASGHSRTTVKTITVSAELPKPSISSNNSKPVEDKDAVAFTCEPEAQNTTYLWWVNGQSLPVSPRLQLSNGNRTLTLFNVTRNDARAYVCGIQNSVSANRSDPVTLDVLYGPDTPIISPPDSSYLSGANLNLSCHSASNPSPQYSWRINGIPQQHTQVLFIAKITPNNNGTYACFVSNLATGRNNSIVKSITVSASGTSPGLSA
Kind of data set: Western blot on cancer cell line lysates. In kind it is binding. The following applies: CEACAM5-positive and -negative cell line lysates. As to the method:
Method used: Western blots were performed according to standard protocols (Sambrook, J. & Russell, D. W., 2001. Molecular Cloning: A Laboratory Manual, Volume 1, CSHL Press). For SDS-PAGE followed by membrane wet blotting, 15 μg total protein of RIPA cell lysates quantified by BCA kit (Thermo Scientific, #23227) were loaded per lane. Criterion XT 4-12% gels (Bio-Rad, #3450125) using MOPS running buffer (Bio-Rad #1610788) were used in a Criterion electrophoresis cell (Bio-Rad, #1656001). Transfer of proteins was confirmed by Ponceau staining. Membranes were washed before and in-between staining with 0.5 μg/mL to 1 μg/mL primary (mAb1 or rb8G4) and secondary antibodies (anti-human IgG, Jackson ImmunoResearch #109-035-098 or anti-rabbit IgG, CellSignaling #7074) was conducted. Stained membranes were visualized by ECL detection reagent using a Fusion FX imaging system (Vilber).

Data set [3] deals with human patient-derived CRC xenograft model COPF217. The data set is described as follows: CRC PDX mouse model COPF217. The following applies: single i.v. treatment, 10 mg/kg. In kind it is in vivo. On the procedure:
(§1) Anti-tumor efficacy in vivo has been evaluated in the human patient-derived CRC xenograft model COPF217 (Shanghai LideBiotech CO., LTD). COPF217 tumor fragments were transplanted subcutaneously into the right flank of six to eight weeks old immunodeficient female mice (NU-Foxn1nu, Charles River). […] Tumor length (L) and width (W) were measured with calipers and tumor volumes were calculated using the formula L×(W^2)/2.

The next data set has as its system MDA-MB-231. Kind of data set: Viability assay (Cell Titer-Glo). In kind it is cell-based, human. Conditions: Table 2. Background: In ATP-based viability assays light output follows the ATP content of the culture.
A further data set can be described thus: ADC stability in serum. In kind it is in vitro ADME. Conditions: up to 96 h. On the procedure: 2 M HEPES solution: 52.1 g HEPES were dissolved in 75 mL MiliQ-water and 15 mL HCl 25%, adjusted to pH 7.55 and added up to 100 mL. This solution was mixed as 15% v/v with serum to obtain a stabilized serum with pH 7.3-7.4. Human serum from Biowest (Lot. no. S15594S4200) was thawed. 100 mL serum were mixed with 15 mL 2 M HEPES buffer. Mouse serum from Biowest (Lot. no. S18169S2160) was thawed. 100 mL serum were mixed with 15 mL 2 M HEPES buffer. Cynomolgus serum was thawed and 8.5 mL serum were mixed with 1.5 mL 2 M HEPES buffer. The pH was measured (7.37) and serum was sterile filtered. 2 mL aliquots were frozen at −20° C.
The prepared serum was thawed at RT. The desired ADC protein concentration was prepared as triplicated with 180 μg/mL for subsequent free payload analytics via LC-MS. After adding the ADCs to the serum, the individual batches were mixed and separated into 20 μL aliquots.
Additionally, one 96 h sample with 20 μL for each ADC was pipetted and was used to for total work up analyses to measure recovery. 0 h samples were directly frozen at −80° C., remaining samples were incubated at 37° C. and 5% CO2 and reactions were stopped at 2/4/6/24/48/72, 96 hours incubation via storage at −80° C.

In data set [4] the test system is human pancreatic cell line derived xenograft model HPAF-II. Kind of data set: Pancreatic cell line derived xenograft model HPAF-II. Conditions: single i.v. treatment. In kind it is in vivo, mouse. As to the method: 5×10^6 HPAF-II cells were injected subcutaneously into the right flank of six to eight weeks old immunodeficient female mice (Hsd:Athymic Nude-Foxn1nu, Envigo). […] Tumor length (L) and width (W) were measured with calipers and tumor volumes were calculated using L×(W^2)/2.
Efficacy of ADC1-M and ADC3-M in comparison to ADC8 was evaluated in the human pancreatic adenocarcinoma, cell line-derived xenograft model HPAF-II (ATCC, CRL-1997). Six to eight weeks old immunodeficient female mice (Hsd:Athymic Nude-Foxn1nu, Envigo) were injected subcutaneously in the right flank with 5×10^6 HPAF-II cells. When tumors reached a mean volume of 150 mm^3, 10 mice/group were treated once intravenously with ADC1-M (1 mg/kg or 6 mg/kg) or with ADC3-M (1 mg/kg or 6 mg/kg) or with ADC8 (1 mg/kg or 6 mg/kg). Tumor length (L) and width (W) were measured with calipers and tumor volumes were calculated using L×W^2/2.

A further data set has as its system SK-CO-1. Kind of data set: Viability assay (Cell Titer-Glo). In kind it is cell-based, human. Conditions: Table 2; at the highest tested compound concentration.
Data set [5] concerns 12 other CRC PDX models with high CEACAM5 expression. Kind of data set: Other CRC PDX models. In kind it is in vivo, mouse. The following applies: single treatment. As to the method:
as §1

B1: mAb1: anti-CEACAM5 antibody; two heavy chains SEQ ID NO: 13 and two light chains SEQ ID NO: 14 (antibody)
heavy: EVQLQESGPGLVKPSQTLSLTCTVSDGSVSRGGYYLTWIRQHPGKGLEWIGYIYYSGSTYFNPSLRSRVTMSVDTSKNQFSLKLSSVTAADTAVYYCARGIAVAPFDYWGQGTLVTVSSASTKGPSVFPLAPSSKSTSGGTAALGCLVKDYFPEPVTVSWNSGALTSGVHTFPAVLQSSGLYSLSSVVTVPSSSLGTQTYICNVNHKPSNTKVDKRVEPKSCDKTHTCPPCPAPPVAGPSVFLFPPKPKDTLMISRTPEVTCVVVDVSHEDPEVKFNWYVDGVEVHNAKTKPREEQYNSTYRVVSVLTVLHQDWLNGKEYKCKVSNKALPSSIEKTISKAKGQPREPQVYTLPPSREEMTKNQVSLTCLVKGFYPSDIAVEWESNGQPENNYKTTPPVLDSDGSFFLYSKLTVDKSRWQQGNVFSCSVMHEALHNHYTQKSLSLSPG
light: EIVLTQSPATLSVSPGERATLSCRTSQSVRSNLAWYQQKPGQAPRLLIYAASTRATGIPARFSGSGSGTEFTLTISSLQSEDFAVYYCQQYTNWPFTFGPGTKVDIKRTVAAPSVFIFPPSDEQLKSGTASVVCLLNNFYPREAKVQWKVDNALQSGNSQESVTEQDSKDSTYSLSSTLTLSKADYEKHKVYACEVTHQGLSSPVTKSFNRGEC
For B1, the midpoint of the response in data set [1], the EC50, lay at 4.8 ± 0.6 nM. For the same molecule, the “CEACAM5 detection in Western blot” value in data set [2] was “specific to CEACAM5-positive cell lines”.

B2: ADC1 (conjugate)
heavy: B1 heavy
light: B1 light
Take B2: the anti-tumor effect result in data set [3] is “significant anti-tumor effect”; in data set [4] (1 mg/kg), “mild but significant, transient anti-tumor effect”; in data set [4] (6 mg/kg), “significant anti-tumor effect”; in data set [5], “tumor stasis or tumor regression”. Moreover, in data set [3], the “impact on body weight” value is “no significant impact on body weight”. The “MDA-MB-231 maximal effect compared to untreated controls” value in the data set on MDA-MB-231 (at the highest tested compound concentration) is reported as “(−67%)”. Besides, in the data set with MDA-MB-231 (six days, geometric mean, N ≥ 3, CEACAM5 Negative), the IC50 is greater than 10 nM. The “warhead release in serum” value in “ADC stability in serum” (cynomolgus serum) and in the data set “ADC stability in serum” (human serum) was “Only minor warhead release observed” throughout. Moreover, the “SK-CO-1 maximal effect compared to untreated controls” value with SK-CO-1 is recorded as “(−97%)”.

As a reminder, the EC50 is the concentration needed to bring the measured effect to its halfway point. A high value points to weaker potency. A word on the IC50: it is the concentration at which inhibition is half-maximal. The low end stands for greater potency, the high end for weaker potency.
